Experimental data as given in the supplement of paper PMC5499739.
The full ranking holds about 16,000 sequences; the median of “Z-score” is about -0.37, and the highest 2% start at about 3.1. This is one part of the list.

tested on: RBM10 RRM1-ZnF-RRM2 (GST-tagged construct); experiment: RNAcompete 7-mer binding Z-score; higher = stronger binding preference
Method: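 RNAcompete: 20 pmol GST-tagged RBM10 RNA-binding constructs were incubated with a designed RNA pool of about 241,000 sequences up to 41 nt (1.5 nmol) on glutathione beads for 30 min at 4 °C and washed. Bound RNAs were identified by microarray hybridisation. Each RNA 7-mer is scored by a one-sided Z-score of its enrichment, computed over probes that contain the 7-mer within longer pool sequences.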

Sequence | RNAcompete 7-mer binding Z-score
CCUAUGG | -0.442
CGUGAGU | 0.188
GCAUUGG | 0.782
ACGACCG | -0.504
UCAUCAA | -0.635
UAUAACU | -0.672
AUGCAUU | -0.602
CGUUCGA | -0.588
CGCUAAC | -0.726
GUAACCC | -0.176
GUGGUCC | 0.0677
CUGCGCU | -0.806
UCCAGUA | -0.391
CAGACAC | -0.289
AAUCCGA | -0.417
GGCUCUG | -0.475
GCGCAGG | 1.59
GAGUCUU | -0.286
CUGGCUG | -0.0743
AUAUCGU | -0.581
UCAAGAG | -0.0306
AAUAUUA | -0.293
ACUCGGA | -0.224
UCACGCG | -0.296
CUGUAGU | -0.61

Sequence | RNAcompete 7-mer binding Z-score
GGGUGAC | 2.92
CAGUCUG | -0.686
AACUGAG | 0.177
CCAUGCA | -0.69
CCAUCUA | -0.854
UGAGAAU | 0.133
GACGCCA | -0.748
CGCCACG | -0.318
GUUAGCU | -0.347
UGAUACG | 0.108
UAUACUC | -0.795
CCCUUAA | -0.832
CUGUCCG | -0.744
AGAAGUU | -0.0743
CGAUUCG | -0.49
CACCAAU | -0.57
GUGACCU | -0.573
GGGGAUG | 3.68
GUCGAGG | 1.9
AUUGCUG | -0.267
CAAGCGU | -0.329
GCCCUUU | -0.992
UAGUGGC | 0.756
UUUGCGA | -0.69
ACACCCC | -0.497

Sequence | RNAcompete 7-mer binding Z-score
GCAGCCG | -0.191
UACGUCU | -0.836
CUGUCGG | -0.446
AGGGUCG | 1.61
UUAACUC | -0.865
CCUUGCA | -0.872
AUUCUAG | -0.544
AUGCGUG | 0.563
ACUGCUU | -1.02
CUAAUCU | -0.865
GUGAAAG | 1.55
AUCAUAC | -0.464
AGCCCGA | -0.694
UUUUAAC | -0.741
GUCGCCA | -0.555
AUUGACU | -0.581
UCGAAAG | -0.00148
AUAGGUU | 1.49
UACACAA | -0.289
ACCUUGG | -0.431
AGGCAGA | 1.07
GCUGUUU | -0.777
UGGUGGG | 4.04
AGUAAGA | 0.541
CAAUGGA | 1.4

Sequence | RNAcompete 7-mer binding Z-score
GGUGGGA | 3.75
AGUUUUU | -0.522
CAAGUUG | -0.0415
GGACGGC | 1.05
AAGAGUA | 1.2
GAGCACG | 0.377
GGUACAG | 2.31
CCUGGGU | 0.326
UAUUUUU | -0.795
GCCGAAC | -0.486
GAUAGGG | 4.38
UAAGGGC | 1.51
CCUAAGG | -0.395
UACUUGU | -0.752
UUCGCGC | -0.85
CUGCAUC | -0.814
UAGGAGG | 2.94
GCGUUUG | -0.22
ACAUAAG | -0.0634
GACGGCA | 0.439
CAAGUUC | -0.566
GGACAGC | 1.07
GCCGGAU | -0.0161
UUUCGAA | -0.584
ACCACUG | -0.468

Sequence | RNAcompete 7-mer binding Z-score
UUCCCUU | -0.825
GCUGGUU | 0.232
ACCGUGU | -0.34
UCUCCUC | -0.664
UGCUGUA | -0.504
CACGCAG | -0.165
CCGGACC | -0.712
GCUCUGU | -0.723
GAUACAG | 0.949
CUUCUCU | -0.854
CAAUCCA | -0.511
GAUUCGG | 0.865
ACUCCAC | -0.781
AUCUUCU | -0.803
ACGACCC | -0.61
CUUUGUG | -0.595
GAAUAGC | 0.0532
ACAAUAU | -0.286
CGGUCAG | 0.166
CACUGUG | -0.471
GGAGAUG | 2.79
AUCCUCC | -0.846
UCCCACG | -0.675
CACGAGA | -0.191
CCAACUG | -0.653

Sequence | RNAcompete 7-mer binding Z-score
ACUUGUG | -0.621
CCAUUUC | -1.01
UUAAUAA | -0.559
AUCAAUA | -0.078
GUUACAC | -0.154
UAAAUAA | -0.264
GCUGCCU | -0.613
ACAGUUU | -0.617
AGUGUGA | 0.574
UCAACCG | -0.646
AAGGCAA | 1.95
CGCAUGU | -0.479
UAUCAGC | -0.77
CCUGAUG | -0.668
CCGAAGC | -0.657
UGUGAAG | 0.829
CCAGUAU | -0.471
CAUUCGC | -0.774
GAGACCU | -0.788
AUUAAUG | 0.075
UCCAGAU | -0.555
ACCCUCC | -0.916
ACCAGGU | 0.399
AGUUGCC | -0.65
ACGCUGG | 0.286

Sequence | RNAcompete 7-mer binding Z-score
GGCUAGG | 1.36
UCUAGAC | -0.821
ACGGUCC | -0.482
ACGGACU | -0.122
AAUACGC | -0.271
UGUUGUG | 0.119
GGGCGAG | 3.88
UGGGUAU | 2.2
UCUGCUC | -0.872
AUGGCCA | 0.075
GUGCAAC | 0.115
CAUUCUG | -0.817
CAGCAUA | -0.479
GGUUUAG | 1.11
CAUAGCA | -0.391
CUUGAGG | 0.221
CGUACUA | -0.337
CGCCCCU | -0.675
GAUUUUG | -0.213
UUUUUUU | -0.785
CCCUGUA | -0.734
CGAACCU | -0.715
UGAGUCG | 0.319
AUGCAUC | -0.362
AAAUCUG | -0.49

Sequence | RNAcompete 7-mer binding Z-score
CGUAACG | 0.0313
GGGGGCU | 1.78
GUUUAGU | -0.125
UGAAAGG | 2.76
AGCCAGU | -0.515
GUUUAAC | -0.49
GGAUAGC | 2.07
GCAGCUC | -0.566
CUGAAUC | -0.617
UAAGUGG | 1.63
UGCAGUC | -0.526
CGAACAG | 0.0131
AUAAUAC | -0.555
UCCCUUG | -0.748
CUGAUAG | -0.315
GAUUAUU | -0.406
UUAGAAU | -0.0998
ACAAAAG | 0.268
AAGGGUA | 4.27
CGGGGAA | 2.76
CUGGAUU | -0.133
UCUGUAU | -0.712
ACUUGGG | 1.24
AAACAGA | 0.0786
CCCGGUC | -0.657

Sequence | RNAcompete 7-mer binding Z-score
GUUGUCA | -0.468
GGUCUCA | -0.169
UAUGAUG | 0.115
CGCUAUU | -0.795
UUCGGCG | 0.173
CAAGUCU | -0.617
UUCCAUU | -0.77
GUCCAGG | 0.308
GUAAUGG | 2.45
GAUUCCC | -0.643
ACGUAGG | 1.8
GAUAGCC | -0.395
UAUCCCA | -0.646
UAGGUAC | 0.749
GAUGGGU | 3.01
GCGUAAU | 0.275
AAUCUUA | -0.715
UGAUGGG | 2.92
AUCGUAU | -0.304
UAGACUU | -0.704
CAUGUGC | -0.253
GUAAUAU | -0.144
AAGGAGC | 2.57
GGGCAUG | 1.88
AUCUGUU | -0.85

Sequence | RNAcompete 7-mer binding Z-score
GGCCUCC | -0.683
UCAUUCC | -0.806
GCUCCCG | -0.464
UUACAUA | -0.351
CCCGGCU | -0.511
GCAUAGC | -0.307
UGUGCAU | -0.282
UGCUUAU | -0.81
UGGUCGG | 1.86
UCCAUUC | -0.748
UCAUAGG | 0.308
UCACGCC | -0.675
GCGUAUA | -0.173
UUCUCGA | -0.759
GCGCCGA | -0.351
CGACAGG | 1.38
ACUUUCU | -0.959
GAUCCCA | -0.646
CGGGGAU | 2.11
UUCAAGU | -0.424
CUGCGAA | -0.544
AAGAAUC | -0.471
GGUGUUU | 0.891
UCAAUAA | -0.497
GAAUAAG | 0.76

Sequence | RNAcompete 7-mer binding Z-score
UCAAUGU | -0.162
GGCUAAC | 0.221
CUCGCAU | -0.69
CCGUUCU | -0.85
GAAGCCU | -0.897
AGACGCA | -0.657
GACGCGC | -0.42
CAACGUU | -0.38
CAGCAAU | -0.413
CAUGGUU | 0.548
CUGUGUG | -0.129
UUUGGUG | 0.629
GCGAGGA | 2.06
CGCGUUA | -0.464
CGACAGC | -0.249
CAGUCGG | 0.352
CUACCCU | -0.803
AAAAUAG | -0.00877
UCGCCGU | -0.562
AGAAUUC | -0.457
CUAGUUG | -0.449
UGAAUAU | -0.311
GAUUUUU | -0.548
GGUGAAG | 2.71
CUAGCGU | -0.522

Sequence | RNAcompete 7-mer binding Z-score
CCUCUCC | -0.65
CCACAGC | -0.657
UAGUUUG | -0.0962
CUGUGGG | 1.63
GCUGCAG | 0.184
CCAAGCC | -0.657
AGCUACU | -0.551
UAAUCGC | -0.766
AGGAUCG | 0.501
GCCAGUC | -0.482
AUUAGCU | -0.464
ACUGCAG | 0.126
CCUAGCA | -0.85
AAGUUGG | 1.43
UAAUGCG | -0.26
GUCCCUU | -0.897
GAACCCC | -0.519
GGGACAC | 1.27
AGUACAA | -0.0707
UACAUAA | -0.493
GGGGGGG | 2.58
GACUGCG | -0.315
UUUGAAA | -0.551
CCUACGU | -0.814
ACGAAAG | 0.654

Sequence | RNAcompete 7-mer binding Z-score
CCUCAGC | -0.843
CUACGCU | -0.701
ACGUCGC | -0.686
ACAUGUC | -0.592
GGCAGCU | 0.108
CGCGUAA | -0.22
AACGGGG | 3.65
GUAUUGA | -0.107
UUAAACU | -0.555
ACUUAAC | -0.788
GGUGUCC | 0.49
AUCUCCU | -0.799
CCUGUCG | -0.73
UAGUCGC | -0.508
CUAGCAG | -0.38
CUGGACA | -0.0743
CCUGCGA | -0.69
UAAGGCA | 1.84
CAAGGGC | 1.45
ACUACUG | -0.599
GUGGGAC | 2.4
GGAGGGU | 3.8
UACGGCC | -0.562
ACUAAUU | -0.694
CACGAUA | -0.369

Sequence | RNAcompete 7-mer binding Z-score
CACGCGC | -0.602
UGGCCGC | -0.231
AAGCGUA | 0.385
GACGACG | 0.275
CGCAUAU | -0.388
GCUCACA | -0.384
CCGUUAA | -0.77
CCAUCAC | -0.715
ACCCUUG | -0.825
GACCAUG | -0.57
ACGGCCC | -0.628
UAACUAU | -0.599
CGUCUAU | -0.661
CCCCCUA | -0.5
GCUUACG | -0.541
CGACGUG | 0.25
UUAAUUC | -0.694
CGCGCUU | -0.821
GAGAGGU | 2.2
GUCUGCA | -0.57
UCCAAGU | -0.42
GGAUCCC | -0.0343
CAACGAG | 0.337
AUUAUUC | -0.723
UGCGCGC | 0.0932

Sequence | RNAcompete 7-mer binding Z-score
GCCUGAG | -0.329
AAACACU | -0.621
AAACCCU | -0.785
AGGCCAU | -0.388
AUGUACU | -0.435
GGCGUAG | 1.86
CCGCGAU | -0.624
CCUCGUA | -0.723
CUAUAGG | 0.516
ACAAGGU | 1.89
CGAACUA | -0.584
AGUUUAA | -0.49
UGGACAC | 0.986
AGGCUCG | -0.191
UAUCAGA | -0.238
AAUAAGC | -0.158
AAGGUAU | 2.03
